Measurements as given in patent publication US20260166082A1, “METHODS OF TREATMENT WITH T CELL THERAPY AND IMMUNOMODULATORY AGENT MAINTENANCE THERAPY” (Celgene Corporation, priority 2022, published 2026).

Key:
[1] = test system: human subjects with multiple myeloma (MM) who had an inadequate response after frontline therapy with autologous stem cell transplant (ASCT); format: in vivo; settings: n = 8; after lenalidomide maintenance, following anti-BCMA CAR-T cell infusion
Description: Additionally, subjects have measurable disease.
Eight subjects received lenalidomide maintenance.
Cytokine release syndrome (graded by Lee Criteria 2014) was low grade. Grade 1 CRS occurred in 14 subjects (45.2%), Grade 2 in 4 subjects (12.9%), and ≥Grade 3 in 0 subject. Median duration of cytokine release syndrome was 3 (range 1-7) days. Moreover, investigator identified neurotoxicity (iiNT) occurred in 2 subjects (6.5%). […] Grade 3 iiNT signs and symptoms were aphasia, bradykinesia, abnormal reflexes, and tremor. Median duration of neurotoxicity was 3.5 (range 2-5) days.
Grade 1 AEs are mild; Grade 2 AEs are moderate; Grade 3 AEs are severe; Grade 4 AEs are life-threatening; and Grade 5 AEs result in death. […] 94% of patients experienced a Grade 3 or 4 adverse event. Grade 3/4 infections included pneumonia (n=1, 3.2%) human ehrlichiosis (n=1, 3.2%), viral pneumonia (n=1, 3.2%) and upper respiratory infection (n=1, 3.2%). […] For grade ≥3 neutropenia and thrombocytopenia occurring within 1 month of anti-BCMA CAR T cell infusion and not resolved at month 1, recovery was defined as attaining laboratory results ≤grade 2 (time to recovery was calculated by recovery/censoring date−infusion date+1).

[2] = test system: human subjects with multiple myeloma (MM) who had an inadequate response after frontline therapy with autologous stem cell transplant (ASCT)

SMILES: Nc1cccc2c1CN(C1CCC(=O)NC1=O)C2=O (stereo not shown) [lenalidomide, 3-(4-amino-1-oxo-1,3-dihydro-2H-isoindol-2-yl) piperidine-2,6-dione]
- Anemia, any grade [1]: 0 n
- Anemia, grade 3/4 [1]: 0 n
- CRS, any grade [1]: 0 n
- CRS, grade 3/4 [1]: 0 n
- Leukopenia, any grade [1]: 0 n
- Leukopenia, grade 3/4 [1]: 0 n
- Thrombocytopenia, grade 3/4 [1]: 0 n
- status of responses ([2]; 8 subjects on lenalidomide maintenance after anti-BCMA CAR-T cells, subsequent analysis): all responses were ongoing
- subjects who achieved a complete response or better ([2]; 8 subjects who received lenalidomide maintenance after anti-BCMA CAR-T cell infusion (6 out of 8)): 75%
- progressive disease events ([2]; subjects who received lenalidomide maintenance after anti-BCMA CAR-T cells, earlier analysis): no progressive disease events occurred
